Reference: patent publication US20070071744A1 (published 2007)

Legend:
[1] = target: T1, collagen (type I bovine; BD Bioscience), immobilized (bovine, UniProt P02453 162-1217; P02465 80-1117); assay: ELISA, immobilized collagen
T1 construct: Fibrillar type I collagen coated on ELISA plates or used as platelet agonist; also called immobilized collagen; collagen type 1
Protocol: Assessment of dimeric Fc-GPVI-nt binding to immobilized collagen. The binding of dimeric Fc-GPVI-nt to immobilized collagen was determined. ELISA plates (Immulon2 HB, Dynx Technologies, Chantilly, Va.) were coated over night at 4° C. with 1 μg collagen (type I bovine; BD Bioscience, Bedford, Mass.) in 100 μl coating buffer (1.59 g/l Na₂CO₃, 2.93 g/l NaHCO₃, 0.2 g/l NaN₃, pH 9.6). The plates were washed with 250 μl/well PBS/0.05% Tween 20 (PBST) twice and blocked with 250 μl/well Roti-Block (Roth, Karlsruhe, Germany) over night. The plates were washed with 250 μl/well PBST twice, then Fc-GPVI-nt in PBST was added and the plate was incubated for 1 hr at room temperature. […] After 5 fold washing with 250 μl PBST 100 μl detection reagent (BM Blue POD Substrate; Roche, Mannheim, Germany) was added and incubated up to 10 min. The reaction was stopped by the addition of 100 μl 1 M H₂SO₄ and the plate was measured at 450 nm against reference wavelength 690 nm.

BSA = BSA (bovine, UniProt P02769); assay: ELISA, immobilized substrate
Chain of BSA (P02769 25-607 limits assumed): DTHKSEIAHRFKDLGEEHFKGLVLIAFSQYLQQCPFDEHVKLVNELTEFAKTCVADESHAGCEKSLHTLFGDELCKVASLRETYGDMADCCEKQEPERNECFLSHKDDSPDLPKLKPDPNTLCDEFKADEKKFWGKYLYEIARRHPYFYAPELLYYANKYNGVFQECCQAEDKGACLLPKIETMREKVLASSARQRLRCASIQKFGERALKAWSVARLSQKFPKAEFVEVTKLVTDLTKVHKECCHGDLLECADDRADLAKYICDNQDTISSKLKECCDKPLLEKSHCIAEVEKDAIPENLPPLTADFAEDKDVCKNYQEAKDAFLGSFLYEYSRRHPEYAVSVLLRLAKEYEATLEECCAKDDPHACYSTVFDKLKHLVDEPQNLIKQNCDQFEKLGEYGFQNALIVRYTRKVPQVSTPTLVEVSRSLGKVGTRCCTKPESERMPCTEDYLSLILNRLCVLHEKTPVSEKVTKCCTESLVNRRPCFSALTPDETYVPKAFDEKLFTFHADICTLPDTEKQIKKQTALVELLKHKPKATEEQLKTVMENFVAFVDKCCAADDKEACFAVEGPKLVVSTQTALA

Chain of UniProt P02453 (P02453 162-1217, chain 1 of 2): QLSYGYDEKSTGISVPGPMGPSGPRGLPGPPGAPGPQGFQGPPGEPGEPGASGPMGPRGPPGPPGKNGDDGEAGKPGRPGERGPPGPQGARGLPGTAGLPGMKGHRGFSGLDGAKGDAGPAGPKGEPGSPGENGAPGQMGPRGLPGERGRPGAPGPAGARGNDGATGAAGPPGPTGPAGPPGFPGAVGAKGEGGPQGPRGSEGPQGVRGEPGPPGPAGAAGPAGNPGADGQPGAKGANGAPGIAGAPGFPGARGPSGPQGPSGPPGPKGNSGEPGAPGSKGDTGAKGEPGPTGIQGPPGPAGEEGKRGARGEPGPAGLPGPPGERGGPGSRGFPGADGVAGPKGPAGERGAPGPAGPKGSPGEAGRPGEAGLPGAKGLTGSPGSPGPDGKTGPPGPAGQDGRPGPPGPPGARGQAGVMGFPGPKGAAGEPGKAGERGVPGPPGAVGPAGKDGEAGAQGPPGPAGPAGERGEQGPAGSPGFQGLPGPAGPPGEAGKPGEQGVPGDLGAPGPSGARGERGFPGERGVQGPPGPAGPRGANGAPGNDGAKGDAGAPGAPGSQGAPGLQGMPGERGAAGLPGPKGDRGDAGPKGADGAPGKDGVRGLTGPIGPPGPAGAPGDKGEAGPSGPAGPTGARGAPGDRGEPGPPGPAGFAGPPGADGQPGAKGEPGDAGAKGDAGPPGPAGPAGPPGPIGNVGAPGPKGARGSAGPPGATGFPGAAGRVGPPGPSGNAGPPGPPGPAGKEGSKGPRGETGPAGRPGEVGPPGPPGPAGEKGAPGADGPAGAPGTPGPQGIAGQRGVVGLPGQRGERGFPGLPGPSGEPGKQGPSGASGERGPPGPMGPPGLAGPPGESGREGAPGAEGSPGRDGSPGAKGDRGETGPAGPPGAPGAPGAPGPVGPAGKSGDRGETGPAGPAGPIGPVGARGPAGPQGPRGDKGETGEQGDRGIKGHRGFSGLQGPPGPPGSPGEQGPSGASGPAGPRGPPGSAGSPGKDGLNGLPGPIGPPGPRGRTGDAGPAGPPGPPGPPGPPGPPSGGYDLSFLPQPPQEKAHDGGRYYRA
Chain of UniProt P02453 (P02465 80-1117, chain 2 of 2, further chain): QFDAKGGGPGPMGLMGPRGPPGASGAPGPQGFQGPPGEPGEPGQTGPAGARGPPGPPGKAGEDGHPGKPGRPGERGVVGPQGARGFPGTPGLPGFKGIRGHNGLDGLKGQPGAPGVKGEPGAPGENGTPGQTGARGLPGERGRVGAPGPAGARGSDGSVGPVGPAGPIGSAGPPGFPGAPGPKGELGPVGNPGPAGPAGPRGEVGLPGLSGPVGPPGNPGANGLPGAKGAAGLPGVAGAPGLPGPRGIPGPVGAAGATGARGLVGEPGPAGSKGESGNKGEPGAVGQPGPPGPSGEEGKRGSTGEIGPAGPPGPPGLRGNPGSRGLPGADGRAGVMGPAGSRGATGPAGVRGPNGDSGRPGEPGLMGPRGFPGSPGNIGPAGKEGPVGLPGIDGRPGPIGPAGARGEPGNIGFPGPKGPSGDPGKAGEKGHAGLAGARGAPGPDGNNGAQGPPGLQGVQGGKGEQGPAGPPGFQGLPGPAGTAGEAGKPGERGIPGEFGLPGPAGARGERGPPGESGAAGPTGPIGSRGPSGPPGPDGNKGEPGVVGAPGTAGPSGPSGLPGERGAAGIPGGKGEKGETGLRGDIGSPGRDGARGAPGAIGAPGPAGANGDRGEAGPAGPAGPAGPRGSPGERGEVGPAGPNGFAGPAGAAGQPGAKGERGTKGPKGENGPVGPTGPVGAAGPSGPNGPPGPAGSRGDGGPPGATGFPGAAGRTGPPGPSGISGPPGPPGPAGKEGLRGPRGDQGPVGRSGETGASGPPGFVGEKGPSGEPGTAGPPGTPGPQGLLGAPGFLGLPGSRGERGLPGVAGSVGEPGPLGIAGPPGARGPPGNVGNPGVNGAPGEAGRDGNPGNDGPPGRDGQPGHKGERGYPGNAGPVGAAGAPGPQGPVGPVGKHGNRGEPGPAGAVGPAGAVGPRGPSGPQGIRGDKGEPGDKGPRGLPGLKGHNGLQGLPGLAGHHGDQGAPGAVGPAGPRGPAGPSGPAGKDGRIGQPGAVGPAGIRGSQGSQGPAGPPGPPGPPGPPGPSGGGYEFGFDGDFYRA

B1: Fc-GPVI-nt (immunoadhesin: extracellular domain of human GPVI fused via Gly-Gly-Arg to human IgG Fc, dimer) (Fc fusion)
chain: QSGPLPKPSLQALPSSLVPLEKPVTLRCQGPPGVDLYRLEKLSSSRYQDQAVLFIPAMKRSLAGRYRCSYQNGSLWSLPSDQLELVATGVFAKPSLSAQPGPAVSSGGDVTLQCQTRYGFDQFALYKEGDPAPYKNPERWYRASFPIITVTAAHSGTYRCYSFSSRDPYLWSAPSDPLELVVTGTSVTPSRLPTEPPSSVAEFSEATAELTVSFTNKVFTTETSRSITTSPKESDSPAGPARQYYTKGNGGR[gap - human IgG1 Fc and a few adjoining residues]
notes: no cleavage site is stated for this entry; Secreted as a disulfide-linked dimer of about 160 kDa from HeLa (adenovirus) or CHO cells; also called GPVI-Fc; GPVI-Fc-dimer
EC50 [1]: 6 µg/mL | binding result (BSA): no binding
